Survival data for 87 molecules are collected here from PubChem BioAssay AID463173 (ICCB-Longwood Screening Facility, Harvard Medical School, 2010).

In all, about 52,000 compounds went through this assay and about 1,700 (3.3%) were called active. Rule as the data show it: active = survival mostly below about 52% (no sharp cut-off); inactive = mostly above about 56%. The list shows a part of the results.

For the assay, the system named is Wild type. The assay is described as follows: growth inhibition of S. aureus wild type versus tarO mutant, primary screen, teichoic acid synthesis inhibitors, RN4220, OD600 (AID 463173). The following applies: S. aureus RN4220 wild type/DeltatarO growth, OD600, 18 h, hits give low values, screened at 18.75 µg/mL (by protocol).
For the molecule `CC(C)OCCCn1c(SCc2cccc(Br)c2)nc2c(sc3ccccc32)c1=O`, the survival is inactive: 85%.

With `CN1C(=O)Cc2cc(S(=O)(=O)CCC(=O)Nc3cccc(C(F)(F)F)c3)ccc21`, the survival is inactive: 82%.

Consider `CC(=O)N1c2ccc(S(=O)(=O)NCC3CCC(C(=O)NCCC(C)C)CC3)cc2CC1C` (configuration not stated), for which the survival was inactive: 109%.

On to `O=S(=O)(NCc1ccc2c(c1)OCO2)c1ccc(S(=O)(=O)NC2CCCCC2)cc1`, for which the survival was inactive: 104%.

On to `Cc1ccc(OC(=O)c2cc(-c3ccccc3)nc3ccc(C)cc23)cc1`, for which the survival was inactive: 61%.

Regarding `COCCNC(=O)c1ccc2c(c1)N(Cc1cccc(Cl)c1)C(=O)c1ccccc1S2(=O)=O`, the survival was inactive: 81%.

With `COc1ccccc1Oc1nc2c(c(=O)n(C)c(=O)n2C)n1Cc1cccc(Br)c1`, the survival is inactive: 78%.

Turning to `CCOC(=O)N1CC=C2C(C#N)=C(N)C(C#N)(C#N)C(CC)C2C1` (configuration not stated), the survival was inactive: 109%.

`CC(=O)Nc1ccc(S(=O)(=O)Nc2cccc(-c3ccc(N4CCC(C)CC4)nn3)c2)cc1`: the survival was inactive: 111%.

As to `CCOC(=O)C1CCN(C(=O)c2ccc3c(c2)sc2nc(-c4ccccc4)cn23)CC1`, the survival was inactive: 42%.

As to `CCSc1nnc(C2CCCN(C(=O)C3CCC(OC)CC3)C2)n1C` (configuration not stated), the survival was inactive: 126%.

In the case of `COc1cccc(CNC(=O)C2Cc3cc(S(=O)(=O)N4CCCCCC4)ccc3N2C(C)=O)c1` (configuration not stated), the survival is inactive: 99%.

`COc1ccc(CC(=O)NCc2ccc3c(c2)CCN3C(C)=O)cc1OC`: the survival was inactive: 78%.

As to `CCN(CC)S(=O)(=O)c1ccc2c(c1)c(=O)c(C(=O)NCc1ccc(Cl)cc1)cn2C`, the survival is inactive: 73%.

On to `Nc1c(C(=O)Nc2ccc(Cl)c(C(F)(F)F)c2)sc2nc(-c3ccncc3)ccc12`, for which the survival is inactive: 79%.

Consider `Cc1c(C(=O)N(C)C)sc2c1c(=O)n(-c1ccc(F)cc1)c(=O)n2Cc1cc(=O)n2ccccc2n1`, for which the survival was inactive: 128%.

As to `COc1cccc(CN(Cc2ccc3c(c2)OCO3)S(=O)(=O)c2ccc(-n3cnnn3)cc2)c1`, the survival was inactive: 121%.

Consider `CN(C(=O)CCc1ccccc1)c1nnc(-c2ccncc2)s1`, for which the survival was inactive: 104%.

In the case of `CCC(=O)N1CCc2cc(Br)cc(S(=O)(=O)N3CCCC(C(=O)NCc4cccc(OC)c4)C3)c21` (configuration not stated), the survival was inactive: 133%.

Take `Cc1nc2c(-c3ccccc3)c(C)nn2c(C)c1CCC(=O)N1CCN(c2ccccc2)CC1`: the survival is inactive: 74%.

With `CC(=O)N1CCCc2ccc(NS(=O)(=O)c3ccc(C)c(C)c3)cc21`, the survival is inactive: 73%.

In the case of `COc1ccc(C(=O)COC(=O)c2cc(-c3ccccc3)nc3c(C)cccc23)cc1`, the survival was inactive: 76%.

With `Cc1ccc(Cc2nc3ccccc3nc2SCC(=O)N2CCN(c3ccccc3F)CC2)cc1`, the survival was inactive: 22%.

Turning to `O=C1CCc2cc(S(=O)(=O)NCc3ccc(F)cc3)cc3c2N1CC3`, the survival was inactive: 72%.

For the molecule `CCc1cc2c(cc3c(=O)n(CC(=O)N4CCC(C)CC4)nc(CC)n32)s1`, the survival was inactive: 69%.

Turning to `CCCS(=O)(=O)c1ncc(Cl)c(C(=O)Nc2c(C(=O)c3ccccc3)oc3ccccc23)n1`, the survival is inactive: 120%.

As for `CCCCCn1c(NCc2ccccc2OC)nc2ccccc21`, the survival is active: -5%.

In the case of `Cn1nc(C(=O)N2CCN(c3cccc(Cl)c3)CC2)c2c1-c1ccccc1S(=O)(=O)C2`, the survival was inactive: 46%.

Consider `O=C(Nc1ccccc1)Nc1nncs1`, for which the survival was inactive: 108%.

`CCS(=O)(=O)N1CCc2cc(C(=O)Nc3ccc(C)c(Cl)c3)ccc21`: the survival was inactive: 102%.

With `CCCCOc1ccc(C(=O)NCC2(N3CCN(C)CC3)CCCCC2)cc1`, the survival is inactive: 87%.

Take `O=C(Nc1nnc(S(=O)(=O)N2CCOCC2)s1)c1cccc(F)c1`: the survival was inactive: 78%.

As to `CCc1ccc(-n2c(=O)c3ccc(C(=O)NCCc4ccccc4)cc3n(CC(N)=O)c2=O)cc1`, the survival is inactive: 81%.

Consider `CC(=O)c1cccc(NC(=O)C(Cc2ccccc2)NS(=O)(=O)c2ccc(Br)s2)c1` (configuration not stated), for which the survival was inactive: 136%.

With `O=C(Nc1ccc(Cl)cc1)N1CCC(CN2CCCC2)CC1`, the survival is inactive: 66%.

For `Cc1ccc2c(c1)C(c1ccccc1)N(C(=O)c1ccc(OC(C)C)cc1)CC(=O)N2` (configuration not stated), the survival was inactive: 67%.

As for `Cc1cccc(CCNC(=O)Cn2ncc3c(=O)oc4ccccc4c32)c1`, the survival was inactive: 76%.

For `Cc1c2cnn(-c3ccccc3)c(=O)c2c(C)n1CC(=O)NCc1ccccc1Br`, the survival is inactive: 76%.

Turning to `CCOC(=O)C1CCN(c2nc(-c3ccc(Br)cc3)nc3ccccc23)CC1`, the survival is inactive: 75%.

With `COc1ccc(OC)c(NC(=O)c2cn3c4c(ccc(Cl)c4c2=O)OC(C)C3)c1` (configuration not stated), the survival was inactive: 82%.

On to `COc1ccc(Cn2cc(C(=O)c3ccc(OC)cc3)c(=O)c3cc4c(cc32)OCCO4)cc1`, for which the survival was inactive: 91%.

`Cc1ccc(C)c(N2CCN(C(=O)CCCn3ncn4c(cc5occc54)c3=O)CC2)c1`: the survival was inactive: 85%.

Regarding `COc1ccc(C(=O)Nc2ccc(-c3cc4ccccc4oc3=O)c(C)c2)cc1Br`, the survival is inactive: 117%.

For the molecule `COc1cccc(CNC(=O)CCS(=O)(=O)c2cc3c(cc2C)NC(=O)CO3)c1`, the survival was inactive: 90%.

`CCc1ccc(-n2c(=O)c3c(C)c(C(=O)N(C)C)sc3n(Cc3cccc(C)c3)c2=O)cc1`: the survival is inactive: 80%.

On to `CCOc1ccc(CNC(=O)CCn2nc(C)c3c(C)n(-c4ccccc4)nc3c2=O)cc1`, for which the survival was inactive: 129%.

Consider `CCN(CCCNC(=O)c1nn(-c2ccc(C)cc2)c(=O)c2c1c1ccccc1n2C)c1ccccc1`, for which the survival was inactive: 82%.

For the molecule `CN(C)c1ccc(CNC(=O)CCCN2C(=O)CCn3nc(-c4cccn4C)cc32)cc1`, the survival was inactive: 69%.

On to `Oc1ccccc1-c1nc(/C=C/c2ccccc2Cl)no1`, for which the survival was inactive: 81%.

Take `Cc1ccccc1NC(=O)CCc1c(C)nn(-c2ccc(N3CCCCC3)nn2)c1C`: the survival was inactive: 68%.

With `Cc1ccc(-n2c(=O)c3c4c(sc3n(Cc3ccccc3F)c2=O)CCC4)cc1C`, the survival was inactive: 116%.

Consider `Cc1nc(-c2ccc(Cl)cc2)sc1CCNC(=O)c1ccco1`, for which the survival is inactive: 135%.

Turning to `COc1cc(-c2nc3sccn3c2Nc2cccc(C)c2)ccc1O`, the survival was inactive: 60%.

Take `Cc1ccc(O)c(-c2ccnc3cc(-c4ccc(Cl)cc4)nn23)c1`: the survival was inactive: 81%.

Take `Cc1coc2cc3oc(=O)c(CC(=O)NCc4ccc(F)cc4)c(C)c3cc12`: the survival is inactive: 99%.

In the case of `COc1ccc(C(=O)Nc2ccc3nc(SCc4ccc(C)cc4)sc3c2)cc1`, the survival is inactive: 93%.

On to `Cc1ccc(Cn2c(=O)n(Cc3nc(-c4ccccc4)no3)c(=O)c3cc4c(cc32)OCO4)cc1`, for which the survival was inactive: 82%.

`COc1ccccc1OCCCn1c(C2CC(=O)N(c3ccccc3Cl)C2)nc2ccccc21` (configuration not stated): the survival is inactive: 93%.

`O=c1[nH]c2ccc(N=Cc3ccc(F)cc3)cc2[nH]1`: the survival is inactive: 103%.

Regarding `CC(=O)c1cccc(NC(=O)CCc2c(C)nc3c(-c4ccc(F)cc4)c(C)nn3c2C)c1`, the survival is inactive: 81%.

Take `CC1(C)CC(=O)C=C(Nc2ccccc2NC(=O)c2cnccn2)C1`: the survival was inactive: 102%.

For `Cn1c(C(C(=O)NCC2CCCO2)N(C(=O)Cn2nnc3ccccc32)c2ccc3c(c2)OCO3)nc2ccccc21` (configuration not stated), the survival was inactive: 111%.

For the molecule `O=C(Nc1ccccc1)N1CCN(C(=O)c2nsc3ccccc23)CC1`, the survival is inactive: 85%.

For the molecule `C=CCSc1nc2ccccc2n1C(=O)c1ccc2c(c1)OCO2`, the survival was inactive: 97%.

As for `Cc1ccc(CCNC(=O)CCn2c(=O)c3cccn3c3ccc(F)cc32)cc1`, the survival was inactive: 64%.

For `CCCc1nc2sc3c(N4CCCCC4)ncnc3c2c2c1CCCC2`, the survival was active: 13%.

As for `COc1ccc(OC)c(NC(=O)Cn2cc(S(=O)(=O)c3ccccc3)c(=O)c3cc(C)ccc32)c1`, the survival is inactive: 83%.

`COc1cccc(C2NC(=O)NC(C)=C2C(=O)Nc2ccccc2C)c1OC` (configuration not stated): the survival is inactive: 107%.

Turning to `CN(C)Cn1c(O)c(N=NC(=O)c2ccccc2)c2ccccc21`, the survival is inactive: 106%.

Take `Cc1cc(=O)n2nc(N3CCC(C(=O)Nc4ccc(C(C)C)cc4)CC3)sc2n1`: the survival is inactive: 87%.

As to `CCNC(=O)CC1C(=O)N(c2ccccc2)C(=O)N1Cc1ccc(F)cc1` (configuration not stated), the survival is inactive: 79%.

With `O=C(CCn1c(=O)c2cccn2c2ccc(F)cc21)NCc1ccccc1F`, the survival is inactive: 75%.

With `Cc1ccc(NC(=O)CSc2nc(-c3ccc(F)cc3)cc(C(F)(F)F)c2C#N)cc1`, the survival is inactive: 85%.

With `CCSc1ncnc2c(-c3ccc(OC)cc3)nsc12`, the survival is inactive: 93%.

For the molecule `Cc1cccc(NC(=O)Cn2c(=O)n(Cc3ccc(C(=O)NCc4ccc5c(c4)OCO5)cc3)c(=O)c3ccccc32)c1`, the survival was inactive: 129%.

For `CCOc1ccc(C(=O)c2cn(CC(=O)Nc3cc(OC)cc(OC)c3)c3ccc(F)cc3c2=O)cc1`, the survival is inactive: 93%.

For `Cc1ccccc1Cn1c(SCc2ccc(C(=O)NCc3cccs3)cc2)nc2ccncc21`, the survival was inactive: 139%.

Consider `COc1ccc(S(=O)(=O)N(Cc2nc(-c3cccc(C)c3)no2)C2CCCCC2)cc1`, for which the survival is inactive: 83%.

Turning to `Cc1ccc2[nH]cc(NC(=O)N3CCCCC3)c(=O)c2c1`, the survival was inactive: 119%.

As for `Cc1cccc(OCc2nnc(SCC(=O)Nc3ccc(C)cc3C)o2)c1`, the survival is inactive: 129%.

For `Cc1ccccc1Cn1c(CCCNC(=O)C2CCCCC2)nc2ccccc21`, the survival was inactive: 101%.

As to `O=C(N1CCC(O)(c2cccnc2)CC1)C12CC3CC(CC(C3)C1)C2`, the survival is inactive: 107%.

On to `Cc1nnc(N2CCC(C(=O)NC(C)C)CC2)c2nn(-c3ccc(Cl)cc3)c(C)c12`, for which the survival was inactive: 64%.

Consider `CCCC(=O)Nc1cccc(-c2nc3ccccc3c(=O)o2)c1`, for which the survival was inactive: 94%.

As to `COc1ccccc1N1CCN(S(=O)(=O)c2ccc3c(c2)oc(=O)n3C)CC1`, the survival was inactive: 79%.

Take `CCCSCCCNC(=O)C1CCN(C(=O)c2cc3sccc3n2C)CC1`: the survival was inactive: 135%.

Take `O=S(=O)(c1ccc(-n2cnnn2)cc1)N1CCN(c2ccccc2F)CC1`: the survival is inactive: 98%.
